Test results published in article PMC9556795, “Micro-electron diffraction structure of the aggregation-driving N terminus of Drosophila neuronal protein Orb2A reveals amyloid-like β-sheets” (The Journal of Biological Chemistry, 2022).

Tests used:
[1] = molecular target: the molecule itself; experiment: ThT fluorescence + negative-stain TEM + X-ray fibre diffraction; self-assembly into fibers; 10 μM protein in PBS pH 7.4, 1 M urea, 1 mM EDTA, 5% glycerol, 1 mM DTT, 25 °C or room temperature
[2] = molecular target: the molecule itself; experiment: ThT fluorescence + negative-stain TEM; self-assembly into fibers; 10 μM protein in 10 mM Hepes pH 7.6, 100 mM KCl, 1 M urea, 0.1 mM CaCl2, 1 mM MgCl2, 5% glycerol, 1 mM DTT, 25 °C, TEM after 7 days

| Protein | binding result [1] | binding result [2] |
| --- | --- | --- |
| full-length Orb2A (natural protein, Drosophila, Plasmid (pET-28) was a gift from Dr Ansgar Siemer (USC); also called Orb2A-FL; source: E. coli Bl21-Gold(DE3), purified under denaturing conditions (HisTrap-HP, 8 M urea)) [about 80 residues cut from this listing]PYNGSQAGCSSGGISPIPPQMGVSPKYRRSISFPIKGNSPTAIYGNMHMDGMGSGHMNIPTLSIGNGGGGGSTGMVSAGATGGGDAPYLGNSYGNMMTSNGQMHHGGGLDNSLCDYMRNMSLGGNGGGDGSNSMSLMQDRMRVMGGPKHLSEADAMAIAASGNDPSVYLNALKMGSPSRLSPHSPHSPIQGGNGGNVGDGTARFSRKVFVGGLPPDIDEDEITTSFRRFGPLVVDWPHKAESKSYFPPKGYAFLLFQDESSVQQLIDSCITDEDKLYLCVSSPTIKDKAVQIRPWRLADADYVLDATMSLDPRKTVFVGGVPRPLKAFELAMIMDRLYGGVCYAGIDTDPELKYPKGAGRVAFSNQQSYIAAISARFVQLQHGDIDKRVEVKPYVLDDQMCDECEGQRCGGKFAPFFCANVTCLQYYCEHCWAVIHSRPGREYHKPLVKEGADRPRAVPFRWC | binds | – |
| Orb2A prion-like domain ([…]) (domain or fragment, Made by overlap-extension PCR from the Orb2A-FL plasmid; also called Orb2A-PLD; WT Orb2A-PLD; source: E. coli Bl21-Gold(DE3), purified under denaturing conditions (HisTrap-HP, 8 M urea)) not shown | binds | – |
| Orb2A prion-like domain ([…]) F5Y (domain or fragment, Made with the Quikchange II site-directed mutagenesis kit; also called F5Y variant; F5Y PLD; source: E. coli Bl21-Gold(DE3), purified under denaturing conditions (HisTrap-HP, 8 M urea)) not shown | – | binds |
| Orb2A prion-like domain ([…]) F8Y (domain or fragment, Made with the Quikchange II site-directed mutagenesis kit; also called F8Y variant; F8Y PLD; source: E. coli Bl21-Gold(DE3), purified under denaturing conditions (HisTrap-HP, 8 M urea)) not shown | – | binds |
